Data on 23 compounds can be found in PubChem BioAssay AID463173 (ICCB-Longwood Screening Facility, Harvard Medical School, 2010).

Molecules are shown by their SMILES. Among all 52,000 compounds or so, about 1,700 (3.3%) were called active. Cut-off read from the data, not from the text of the source: active = survival mostly below about 52% (no sharp cut-off); inactive = mostly above about 56%. The list shows a part of the results.

This experiment concerns Wild type. Kind of experiment: S. aureus survival, RN4220 and DeltatarO strains – OD600, teichoic acid synthesis inhibitors, primary screen (AID 463173). Particulars: S. aureus RN4220 wild type/DeltatarO growth, OD600, 18 h, stronger effect = lower value, screened at 18.75 µg/mL (by protocol).
Turning to `COC(=O)CN1C(=O)CSc2ccc(S(=O)(=O)Nc3cccc(C)c3)cc21`, the survival is inactive: 95%. For the compound `COCCn1nnnc1C(c1ccncc1)N1CCCC1` (stereo not drawn), the survival was inactive: 119%. `Cc1cccc(C(=O)Nc2nc3nc(-c4ccccc4)cc(=O)n3[nH]2)c1`: the survival is inactive: 95%. Turning to `CCOc1ccc(CCNC(=O)C2CCN(Cc3nc(-c4ccc(OC)c(OC)c4)oc3C)CC2)cc1OCC`, the survival was inactive: 85%.

As to `COc1cc(-c2nc(-c3ccc4c(c3)[nH]c(=O)n4C)no2)cc(OC)c1OC`, the survival is inactive: 83%. As to `CCOc1ccccc1NC(=O)C1CCN(S(=O)(=O)c2ccc3[nH]c(=O)ccc3c2)CC1`, the survival was inactive: 45%. On to `COc1ccc(-n2c(/C=C/c3cccc(C(F)(F)F)c3)nc3ccccc3c2=O)cc1Cl`, for which the survival was inactive: 73%.

In the case of `COc1ccc(C2SCCN2S(=O)(=O)c2ccc(NC(C)=O)cc2)cc1OC` (stereo not drawn), the survival is inactive: 99%.

`Cn1cc(S(=O)(=O)N2CCCCCC2)cc1C(=O)N1CCN(c2cccc(C(F)(F)F)c2)CC1`: the survival was inactive: 73%. `CCC(=O)N1CCc2cc(Br)cc(S(=O)(=O)N3CCCC(C(=O)NCc4ccc(F)cc4)C3)c21` (stereo not drawn): the survival is inactive: 89%. Take `Cc1ccn2c(=O)cc(COc3ccc(NC(=O)COc4ccccc4)cc3)nc2c1`: the survival was inactive: 70%. As to `Cc1ccc(S(=O)(=O)N2CCN(Cc3cc(Br)ccc3O)CC2)cc1`, the survival was inactive: 82%.

`N#Cc1ccccc1NC(=O)C(=O)NCCc1csc(-c2ccc(C(F)(F)F)cc2)n1`: the survival was inactive: 80%. On to `COc1cc(NC(=O)C2CCCCC2)c(OC)cc1NC(=O)CCC(=O)NCc1ccco1`, for which the survival was inactive: 102%. `O=C1CSC2(C(=O)N(Cc3ccccc3)c3ccccc32)N1c1cccc(F)c1` (stereo not drawn): the survival is inactive: 68%.

For `CCc1ccc(NC(=O)COC(=O)CCCC2=NS(=O)(=O)c3ccccc3N2)cc1`, the survival was inactive: 129%. Consider `CCOC(=O)CS(=O)(=O)c1nc2c(c(C(F)(F)F)n1)CCc1ccccc1-2`, for which the survival is inactive: 106%. For `COc1ccc(-c2nnc(SCC(=O)Nc3cc(OC)ccc3OC)nc2-c2ccc(OC)cc2)cc1` the value was inactive: 66%; for `Cc1ccc2nc(COc3ccccc3NC(=O)c3ccccc3C)cc(=O)n2c1`, inactive: 71%; for `Cc1cccc(CCNC(=O)c2ccc3c(c2)nc2n3CCC(C)C2)c1` (stereo not drawn), inactive: 73%. With `COc1ccc(OC)c(NC(=O)c2ccc3c(SCC(=O)O)c4c(nc3c2)CCCC4)c1`, the survival was inactive: 68%. `COc1ccc(CCn2c(=O)c3cccnc3n(CC(=O)Nc3c(C)cccc3C)c2=O)cc1OC`: the survival was inactive: 76%.

On to `CCc1cccc(C)c1NC(=O)Cn1c(=O)n(-c2ccc(C)cc2)c(=O)c2c1cnn2C`, for which the survival is inactive: 80%.
